Measured values as given in the supplement of paper PMC8674133.
Recombinant human monoclonal antibodies (heavy:light variable regions). ELISA EC50 on the named antigen, from 10 µg/ml down; IC50 / IC90 against spike pseudovirus on 293T-ACE2 cells, 48 h; lower = stronger. Calls: IC50 above 1,000 ng/ml = non-neutralizing; EC50 above 2,000 ng/ml = non-binder. The source prints 1000 for neutralization that was not reached; it is given as >1000 ng/ml. A few antibodies were first reported in earlier work of the same group.

B1: C1313 (protein)
chain 1: EVQLVESGGGLAQPGGSLRLSCAASGFTFSSYDMHWVRQATGKRLEWVSAIGTDGDTYYTDSVKGRFTISRENAKNSLYLQMNSLRAGDTAVYYCARAVDSSSWYSNWYFDLWGRGTLVTVSS
chain 2: DIVMTQSPDSLAVSLGERATINCKSSQSVSYSSNNKNFLAWYQQKPGQPPKLLLYWASTRESGVPDRFSGSGSGTDFTLTINTLQAEDVAVYYCQQYYTTPVITFGQGTRLEIK
B2: C1310 (protein)
chain 1: EVQLVESGGGLIQPGGSLRLSCVASGFTVRSTYMSWVRQAPGKGLEWVSTIYIANSAYYADSVKGRFTISRDNSKNTVFLQMNSLRAEDTAVYYCAREGSLEVAGPKLDAFDIWGQGTMVTVSS
chain 2: DIQLTQSPSSLSASVGDRVTITCRASQSISSYLNWYQQKPGKAPKLLIYAASSLQSGVPSRFSGSGSGTDFTLTISNLQPEDFATYYCQQSYSTRSITFGQGTRLEIK
B3: C1309 (protein)
chain 1: VQLVESGGGVVQPGRSLRLSCAASGFTFSTYGMHWVRQAPGKGLEWVAVISYDGSNKYYADSVKGRFTISRDNSKNTLYLQMNSLRAEDTAVYYCAKDARGRYYYDSSGYFDYWGQGTLVTVSS
chain 2: IRMTQSPSSLSASVGDRVTITCQASQDISNYLNWYQQKPGKAPKLLIYDASNLETGVPSRFSGSGSGTDFTFTISSLQPEDIATYYCQQYDNLLTFGGGTKVEIK
B4: C1312 (protein)
chain 1: VQLVESGGGVVQPGRSLRLSCAASGFTFSSYGMHWVRQAPGKGLEWVAVISYDGSNKYYADSVKGRFTISRDNSKNTLYLQMNSLRTEDTAVYYCAKAPRGYYDSSGYYRLQDYFDYWGQGTLVTVSS
chain 2: AIRMTQSPSSLSASVGDRVTITCRASQGISSALAWYQQKPGKAPKLLINDASSLESGVPSRFSGSGSGTDFTLTISSLQPEDFATYFCQQFNSYPLIFGGGTKVEIK
B5: C1315 (protein)
chain 1: EVQLVQSGAEVKKPGESLKISCKGSGYSFISYWIGWVRQMPGKGLEWMGITYPGDSDTRYSPSFQGQVTISADKSISTAYLQWSSLKASDTAMYYCARTYGSGSYSDFDYWGQGTLVTVSS
chain 2: QSVLTQPPSASGTPGQRVTISCSGSSSNIGGNTVNWYQQLPGTAPKLLIYINNQRPSGVPDRFSGSKSGTSASLAISGLQSEDEADYYCAAWDDSLNGRGVFGGGTKLTVL
B6: C1311 (protein)
chain 1: VQLVESGGGVVQPGRSLRLSCAASGFTFSYYGMHWVRQAPGKGLEWVAVISYDGNNKYYADSVKGRFTISRDNSKNTLYLQMNSLRAEDTAVYYCAKNSDYGDPSALSDDAVDIWGQGTMVTVSS
chain 2: QSVLTQPPSVSGAPGQRVTISCSGSSSNIGAGYDVHWYQQLPGTAPKLLIYGNSNRPSGVPDRFSGSKSGTSASLAITGLQAEDEADYYCQSYDSSLSVSRVFGTGTKVTVL
B7: C1314 (protein)
chain 1: VQLVESGGGVVQPGRSLRLSCAASGFTFSSYGMHWVRQAPGKGLEWVAVISYDGSNKYYADSVKGRFTISRDNSKNTLYLQMNSLRTEDTAVYYCARGWFGEEVGYYYFGLDVWGQGTTVTVSS
chain 2: QSVLTQPPSVSGAPGQRVTISCTGSSSNIGAHYDVHWYQQLPGTAPKLLIYGNSNRPSGVPDRFSGSKSGTSASLAITGLQAEDEADYYCQSYDSSLSGWVFGGGTKLTVL
B8: C1316 (protein)
chain 1: QVQLVQSGAEVKKPGASVKVSCKVSGYTLTELSMHWVRQAPGKGLEWMGGFDPEDGETIYAQKFQGRVTMTEDTSTDTAYMELSSLRSEDTAVYYCATALITMVRGGEYHMDVWGQGTTVTVSS
chain 2: SYELTQPPSVSVSPGQTARITCSGDALPKQYAYWYQQKPGQAPVLVIYKDSERPSGIPERFSGSSSGTTVTLTISGVQAEDEADYYCQSADSSGLVFGGGTKLTVL

Legend:
[1] = target: SARS-CoV-2 Wuhan-Hu-1 spike pseudovirus; assay: pseudovirus neutralization IC50; higher = weaker neutralization
Protocol: (§1)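 Single-round luciferase reporter pseudovirus mixed with antibody dilutions and put on 293T-ACE2 cells for 48 h; signal relative to no-antibody wells, four-parameter fit.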

[2] = target: SARS-CoV-2 Wuhan-Hu-1 spike pseudovirus; assay: pseudovirus neutralization IC90; higher = weaker neutralization
Protocol: as §1

[3] = target: SARS-CoV-2 Wuhan-Hu-1 spike receptor-binding domain; assay: ELISA binding EC50; higher = weaker binding; ELISA of recombinant human antibody on coated antigen, from 10 µg/ml in fourfold dilutions; four-parameter fit.

Binder | pseudovirus neutralization IC50 [1] | pseudovirus neutralization IC90 [2] | ELISA binding EC50 [3]
B1 | > 1 µg/mL | > 1 µg/mL | 0.00306 µg/mL
B2 | 0.0051 µg/mL | 0.0676 µg/mL | 0.00336 µg/mL
B3 | > 1 µg/mL | > 1 µg/mL | 0.00249 µg/mL
B4 | 0.159 µg/mL | > 1 µg/mL | 0.00293 µg/mL
B5 | 0.144 µg/mL | > 1 µg/mL | 0.00408 µg/mL
B6 | 0.216 µg/mL | > 1 µg/mL | 0.00263 µg/mL
B7 | 0.259 µg/mL | > 1 µg/mL | 0.00311 µg/mL
B8 | > 1 µg/mL | > 1 µg/mL | 0.00305 µg/mL
